Measurements: the supplement of paper PMC4967469
Lines with a small IC50 respond at low doses; where the fit passes the top or lowest dose, that dose stands as a limit. AUC is the area under the same curve over the 256-fold range up to the top dose, as a fraction; it is 1 without any effect and falls as sensitivity rises. For some of these results: A top dose marked as inferred was derived from the fitted curves, not read from the paper. For some of these results: Where an entry number is given, a second screen of the drug exists; the two often differ.

How the values were obtained:
Assay in all cases: Viability of human cancer cell lines after 72 h of drug (GDSC screen)
[1] = compound: CC(=O)O[C@@]12CO[C@@H]1C[C@H](O)[C@@]1(C)C(=O)[C@H](O)C3=C(C)[C@@H](OC(=O)[C@H](O)[C@@H](NC(=O)OC(C)(C)C)c4ccccc4)C[C@@](O)([C@@H](OC(=O)c4ccccc4)[C@H]21)C3(C)C [Docetaxel]; conditions: top dose 0.0125 µM
Protocol: (§1)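 Human cancer cell lines in 384-well plates, medium with 10% serum, drug for 72 h over a 256-fold dose range (nine 2-fold or five 4-fold steps up to the top dose). Adherent lines were fixed and stained with the nucleic acid dye Syto60, suspension lines read with resazurin; signal relative to control wells, capped at 0 and 100%. One two-parameter sigmoid per drug and line, fitted in a mixed model over all curves with the slope shared within a line.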

[2] = compound: COCC[n+]1c2c(n(Cc3cnccn3)c1C)C(=O)c1ccccc1C2=O [YM155]; conditions: top dose 5.12 µM
Protocol: as §1

[3] = compound: C[C@]1(O)C[C@@H](c2nc(-c3ccc4ccc(-c5ccccc5)nc4c3)c3c(N)nccn32)C1 [OSI-906]; conditions: top dose 2.56 µM; top dose inferred
Protocol: as §1

[4] = compound: CCOc1nc(NC(=O)Cc2cc(OC)ccc2OC)cc(N)c1C#N [JNK Inhibitor VIII]; conditions: top dose 10 µM; top dose inferred
Protocol: as §1

[5] = compound: CC1(C)CNc2cc(NC(=O)c3cccnc3NCc3ccncc3)ccc21 [AMG-706]; conditions: top dose 2 µM; top dose inferred
Protocol: as §1

[6] = compound: Cc1ccc(C(=O)N(CCCN)[C@@H](c2nc3cc(Cl)ccc3c(=O)n2Cc2ccccc2)C(C)C)cc1 [SB-715992]; conditions: top dose 0.128 µM; top dose inferred
Protocol: as §1

[7] = compound: COC(=O)[C@H](CCSC)NC(=O)c1ccc(NC[C@@H](N)CS)cc1-c1ccccc1 [FTI-277]; conditions: top dose 1.024 µM; top dose inferred
Protocol: as §1

[8] = compound: CN1CCN(c2ccc([N+](=O)[O-])c3no[n+]([O-])c23)CC1 [NSC-207895]; conditions: top dose 20 µM; top dose inferred
Protocol: as §1

[9] = compound: CC1=C2C[C@H]3[C@@H](CC=C4C[C@@H](O)CC[C@@]43C)[C@@H]2CC[C@]12O[C@@H]1C[C@H](C)CN[C@H]1[C@H]2C [Cyclopamine]; conditions: top dose 16 µM; top dose inferred
Protocol: as §1

[10] = compound: OCCCNc1cc(-c2ccnc(Nc3cccc(Cl)c3)n2)ccn1 [CGP-60474]; conditions: top dose 0.256 µM; top dose inferred
Protocol: as §1

[11] = compound: Cc1sc2c(c1C)C(c1ccc(Cl)cc1)=N[C@@H](CC(=O)OC(C)(C)C)c1nnc(C)n1-2 [JQ1]
Protocol: as §1

[12] = compound: c1ccc2c(CCNc3ccc(Nc4ccncc4)cc3)c[nH]c2c1 [JNJ-26854165]; conditions: top dose 10 µM
Protocol: as §1

[13] = compound: O=C(/C=C/c1cccc(S(=O)(=O)Nc2ccccc2)c1)NO [Belinostat]; conditions: top dose 20 µM; top dose inferred
Protocol: as §1

[14] = top dose 1 µM, screen: GDSC drug entry 1218, top dose inferred
[15] = top dose 2.56 µM, screen: GDSC drug entry 163

Row | Cell Line | AUC [1] | IC50 [1] [µM] | AUC [2] | IC50 [2] [µM] | AUC [3] | IC50 [3] [µM] | AUC [4] | IC50 [4] [µM] | AUC [5] | IC50 [5] [µM] | AUC [6] | IC50 [6] [µM] | AUC [7] | IC50 [7] [µM] | AUC [8] | IC50 [8] [µM] | AUC [9] | IC50 [9] [µM] | AUC [10] | IC50 [10] [µM] | AUC [11, 14] | IC50 [11, 14] [µM] | AUC [11, 15] | IC50 [11, 15] [µM] | AUC [12] | IC50 [12] [µM] | AUC [13] | IC50 [13] [µM]
1 | SK-UT-1 (soft tissue, adherent) | 0.716 | 0.00298 | 0.229 | 0.0572 | 0.981 | > 2.56 | 0.983 | > 10 | 0.971 | > 2 | 0.717 | 0.0309 | 0.977 | > 1.02 | 0.949 | > 20 | 0.968 | > 16 | 0.769 | 0.0885 | 0.98 | > 1 | 0.598 | 0.289 | 0.965 | > 10 | 0.913 | > 20
2 | SLVL (B-cell lymphoma, suspension) | 0.955 | > 0.0125 | 0.034 | < 0.02 | 0.981 | > 2.56 | 0.986 | > 10 | 0.986 | > 2 | 0.727 | 0.037 | 0.974 | > 1.02 | 0.924 | > 20 | 0.981 | > 16 | 0.692 | 0.0573 | 0.978 | > 1 | 0.777 | 1.09 | 0.913 | > 10 | 0.139 | 0.0836
3 | ST486 (Burkitt lymphoma, suspension) | 0.954 | > 0.0125 | 0.051 | < 0.02 | 0.962 | > 2.56 | 0.989 | > 10 | 0.989 | > 2 | 0.59 | 0.0137 | 0.99 | > 1.02 | 0.826 | 10.3 | 0.983 | > 16 | 0.622 | 0.0332 | 0.864 | 0.716 | 0.524 | 0.184 | 0.961 | > 10 | 0.217 | 0.21
4 | SU-DHL-4 (B-cell lymphoma, suspension) | 0.997 | > 0.0125 | 0.006 | < 0.02 | 0.997 | > 2.56 | 0.997 | > 10 | 0.997 | > 2 | 0.676 | 0.0213 | 0.996 | > 1.02 | 0.986 | > 20 | 0.89 | 9.47 | 0.58 | 0.0249 | 0.997 | > 1 | 0.96 | > 2.56 | 0.997 | > 10 | 0.152 | 0.174
